Binding signal data for 20 molecules are collected here from article PMC9911399, “Two distinct binding modes provide the RNA-binding protein RbFox with extraordinary sequence specificity”.

T1: RBFOX1 RRM (Homo sapiens, UniProt Q9NWB1 109-208)
T1 sequence: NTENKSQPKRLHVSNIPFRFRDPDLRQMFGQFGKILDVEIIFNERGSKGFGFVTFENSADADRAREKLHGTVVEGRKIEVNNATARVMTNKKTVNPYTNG

B1: AAAGUCA (DNA:RNA)
RNA: GGGAGACCGGAAUUCAGAUUGUCCAAAGUCAUUAAAUCCCGUCGUAGCCACCA
DNA 1: CAATCTGAATTCCGGTCTCCC
DNA 2: TGGTGGCTACGACGGGATT
B2: UCGUGAA (DNA:RNA)
RNA: B1 RNA with A25U, A26C, A27G, G28U, U29G, C30A
DNA 1: CAATCTGAATTCCGGTCTCCC
DNA 2: TGGTGGCTACGACGGGATT
B3: GCGCGGU (DNA:RNA)
RNA: GGGAGACCGGAAUUCAGAUUGUCCGCGCGGUUUAAAUCCCGUCGUAGCCACCA
DNA 1: CAATCTGAATTCCGGTCTCCC
DNA 2: TGGTGGCTACGACGGGATT
B4: UUGCGAC (DNA:RNA)
RNA: B3 RNA with G25U, C26U, G30A, U31C
DNA 1: CAATCTGAATTCCGGTCTCCC
DNA 2: TGGTGGCTACGACGGGATT
B5: UUACUAU (DNA:RNA)
RNA: B1 RNA with A25U, A26U, G28C, C30A, A31U
DNA 1: CAATCTGAATTCCGGTCTCCC
DNA 2: TGGTGGCTACGACGGGATT
B6: AGGCCGA (DNA:RNA)
RNA: B3 RNA with G25A, C26G, G29C, U31A
DNA 1: CAATCTGAATTCCGGTCTCCC
DNA 2: TGGTGGCTACGACGGGATT
B7: UGGCCAG (DNA:RNA)
RNA: B3 RNA with G25U, C26G, G29C, G30A, U31G
DNA 1: CAATCTGAATTCCGGTCTCCC
DNA 2: TGGTGGCTACGACGGGATT
B8: AAAGGGG (DNA:RNA)
RNA: B1 RNA with U29G, C30G, A31G
DNA 1: CAATCTGAATTCCGGTCTCCC
DNA 2: TGGTGGCTACGACGGGATT
B9: UCGCACC (DNA:RNA)
RNA: B3 RNA with G25U, G29A, G30C, U31C
DNA 1: CAATCTGAATTCCGGTCTCCC
DNA 2: TGGTGGCTACGACGGGATT
B10: CUCGUCG (DNA:RNA)
RNA: B1 RNA with A25C, A26U, A27C, A31G
DNA 1: CAATCTGAATTCCGGTCTCCC
DNA 2: TGGTGGCTACGACGGGATT
B11: GCUUAGC (DNA:RNA)
RNA: B3 RNA with G27U, C28U, G29A, U31C
DNA 1: CAATCTGAATTCCGGTCTCCC
DNA 2: TGGTGGCTACGACGGGATT
B12: GGACGGU (DNA:RNA)
RNA: B3 RNA with C26G, G27A
DNA 1: CAATCTGAATTCCGGTCTCCC
DNA 2: TGGTGGCTACGACGGGATT
B13: GGAUGCU (DNA:RNA)
RNA: B3 RNA with C26G, G27A, C28U, G30C
DNA 1: CAATCTGAATTCCGGTCTCCC
DNA 2: TGGTGGCTACGACGGGATT
B14: GCAAUUU (DNA:RNA)
RNA: B3 RNA with G27A, C28A, G29U, G30U
DNA 1: CAATCTGAATTCCGGTCTCCC
DNA 2: TGGTGGCTACGACGGGATT
B15: GGCCCGA (DNA:RNA)
RNA: B3 RNA with C26G, G27C, G29C, U31A
DNA 1: CAATCTGAATTCCGGTCTCCC
DNA 2: TGGTGGCTACGACGGGATT
B16: GUUUAGU (DNA:RNA)
RNA: B3 RNA with C26U, G27U, C28U, G29A
DNA 1: CAATCTGAATTCCGGTCTCCC
DNA 2: TGGTGGCTACGACGGGATT
B17: AUAUUUA (DNA:RNA)
RNA: B1 RNA with A26U, G28U, C30U
DNA 1: CAATCTGAATTCCGGTCTCCC
DNA 2: TGGTGGCTACGACGGGATT
B18: CUAUUAU (DNA:RNA)
RNA: B1 RNA with A25C, A26U, G28U, C30A, A31U
DNA 1: CAATCTGAATTCCGGTCTCCC
DNA 2: TGGTGGCTACGACGGGATT
B19: AGGGGGU (DNA:RNA)
RNA: B3 RNA with G25A, C26G, C28G
DNA 1: CAATCTGAATTCCGGTCTCCC
DNA 2: TGGTGGCTACGACGGGATT
B20: GGAACGA (DNA:RNA)
RNA: B1 RNA with A25G, A26G, G28A, U29C, C30G
DNA 1: CAATCTGAATTCCGGTCTCCC
DNA 2: TGGTGGCTACGACGGGATT

Changes are numbered by the printed parent chain; changes in the protein carry UniProt numbers. Some of the results follow.

In this experiment the target is T1, RBFOX1 RRM. Nature of the experiment: EMSA; HiTS-Eq, 1 nM pool, 10 min; buffer printed only for the single-RNA assays: 10 mM Tris pH 7.5, 150 mM NaCl, 3.4 mM EDTA, 0.001% NP-40, 30 C. The following applies: tags: His6 N-terminal (pET28a); label: 5' 32P. The method, boiled down: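 A pool of RNA with 7 randomized nucleotides, 5′-radiolabelled and with DNA-annealed flanks, was equilibrated at 1 nM for 10 min in 50 µL with purified RbFox RRM, wild type or mutant, across increasing protein concentrations. Free RNA was separated by 8% native PAGE, excised, reverse-transcribed, barcoded by PCR and sequenced. Relative association constants were obtained from read-count changes of each RNA species versus the control reaction and normalised to the cognate motif.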
On the technique in general: A gel shift assay detects complexes by their altered migration in electrophoresis.
Turning to B1, the binding signal was 0.00111 KA relative to UGCAUGU. The result for B2 reads 0.0077 KA relative to UGCAUGU; that for B3, 0.0228 KA relative to UGCAUGU; that for B4, 0.00598 KA relative to UGCAUGU. Under B5 stands 0.00582 KA relative to UGCAUGU; under B6, 0.0101 KA relative to UGCAUGU. As for B7, the binding signal was 0.0186 KA relative to UGCAUGU.

In the case of B8, the binding signal is 0.00579 KA relative to UGCAUGU. In the case of B9, the binding signal is 0.0108 KA relative to UGCAUGU.

With B10, the binding signal was 0.0105 KA relative to UGCAUGU. Consider B11, for which the binding signal was 0.0153 KA relative to UGCAUGU.

As for B12, the binding signal is 0.0217 KA relative to UGCAUGU. Under B13 stands 0.0261 KA relative to UGCAUGU. With B14, the binding signal was 0.00549 KA relative to UGCAUGU. B15: the binding signal is 0.000338 KA relative to UGCAUGU. B16: the binding signal was 0.0122 KA relative to UGCAUGU.

Turning to B17, the binding signal is 0.000275 KA relative to UGCAUGU. The result for B18 reads 0.00107 KA relative to UGCAUGU. Under B19 stands 0.0184 KA relative to UGCAUGU; under B20, 0.0157 KA relative to UGCAUGU.
